# Data reported in the supplement of paper PMC10037445.
# Over roughly 2,900 compounds, “IRF Lucia reporter activity, fold change vs agonist alone” has its median near 0.9; the highest 2% begin near 2.8. Some of the results follow.
# Key:
# RAW-Dual [1] = experiment: IRF Lucia reporter activity, fold change vs agonist alone; higher = enhanced IRF activity; details: cytotoxicity flag (confluency mask): not cytotoxic, agonist: MPLA (TLR4) […]
# Outline: (§1)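 Reporter activity is given as fold change relative to agonist-alone wells. To measure it, 50 nL of library stock was pin-tooled onto RAW-Dual macrophages (50,000 cells/well, DMEM, 384-well plates), a PRR agonist followed 1 h later, and cells stayed at 37 °C, 5% CO2. Twenty hours on, supernatant was assayed for IRF (QuantiLuc luminescence) and NF-κB (QuantiBlue, 620 nm absorbance), and wells under 70% of agonist-control IncuCyte confluency in both mask sets were marked cytotoxic.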
# RAW-Dual [2] = experiment: IRF Lucia reporter activity, fold change vs agonist alone; cytotoxicity flag (confluency mask): not cytotoxic; higher = enhanced IRF activity
# Outline: as §1
# RAW-Dual [3] = experiment: IRF Lucia reporter activity, fold change vs agonist alone; cytotoxicity flag (confluency mask): cytotoxic (confluency <70% of control); higher = enhanced IRF activity
# Outline: as §1
# [4] = library stock concentration (final ~1000-fold dilution): 10 mM water
# [5] = agonist: 3'3'-cGAMP (STING) 10 ug/mL
# [6] = library stock concentration (final ~1000-fold dilution): 10 mM
compound,measurement,setting,value
COC(=O)C(N)CCCNC(=N)N[N+](=O)[O-].Cl (stereo not given),IRF Lucia reporter activity,RAW-Dual [1]; [4],1.46
CN(C)C(=O)Oc1cccc([N+](C)(C)C)c1 (library stock concentration (final ~1000-fold dilution): 10 mM water),IRF Lucia reporter activity,RAW-Dual [2]; [5],1.22
same,IRF Lucia reporter activity,RAW-Dual [2]; agonist: LPS (TLR4) 0.1 ug/mL,0.842
CN(C)C(=O)Oc1cccc([N+](C)(C)C)c1,IRF Lucia reporter activity,RAW-Dual [1]; [4],1.38
CN(C)C(=O)Oc1cccc([N+](C)(C)C)c1.COS(=O)(=O)[O-],IRF Lucia reporter activity,RAW-Dual [1]; [6],1.06
CN(C)C(=O)Oc1cccc([N+](C)(C)C)c1.COS(=O)(=O)[O-] (library stock concentration (final ~1000-fold dilution): 10 mM),IRF Lucia reporter activity,RAW-Dual [2]; [5],1.03
same,IRF Lucia reporter activity,RAW-Dual [2]; agonist: LPS (TLR4) 0.1 ug/mL,0.936
COc1ccc(C(=O)O)cc1OC (library stock concentration (final ~1000-fold dilution): 10 mM),IRF Lucia reporter activity,RAW-Dual [2]; [5],0.517
same,IRF Lucia reporter activity,RAW-Dual [2]; agonist: LPS (TLR4) 0.1 ug/mL,0.703
CCCCC(C#N)(Cn1cncn1)c1ccc(Cl)cc1 (stereo not given),IRF Lucia reporter activity,RAW-Dual [1]; [6],1.33
CCCCC(C#N)(Cn1cncn1)c1ccc(Cl)cc1 (stereo not given) (library stock concentration (final ~1000-fold dilution): 10 mM),IRF Lucia reporter activity,RAW-Dual [2]; [5],1.25
same,IRF Lucia reporter activity,RAW-Dual [2]; agonist: LPS (TLR4) 0.1 ug/mL,1.27
CCc1c(C(=O)C(N)=O)c2c(OCC(=O)O)cccc2n1Cc1ccccc1,IRF Lucia reporter activity,RAW-Dual [1]; [6],0.882
CCc1c(C(=O)C(N)=O)c2c(OCC(=O)O)cccc2n1Cc1ccccc1 (library stock concentration (final ~1000-fold dilution): 10 mM),IRF Lucia reporter activity,RAW-Dual [2]; [5],0.95
same,IRF Lucia reporter activity,RAW-Dual [2]; agonist: LPS (TLR4) 0.1 ug/mL,1.07
COc1ccc2c(c[n+](C)c3c4cc5c(cc4ccc23)OCO5)c1OC.Cl,IRF Lucia reporter activity,RAW-Dual [1]; [6],0.0339
COc1ccc2c(c[n+](C)c3c4cc5c(cc4ccc23)OCO5)c1OC.Cl (library stock concentration (final ~1000-fold dilution): 10 mM),IRF Lucia reporter activity,RAW-Dual [2]; [5],0.0106
same,IRF Lucia reporter activity,RAW-Dual [2]; agonist: LPS (TLR4) 0.1 ug/mL,0.0487
CN1C2CC(OC(=O)C(CO)c3ccccc3)CC1C1OC12 (stereo not given) (library stock concentration (final ~1000-fold dilution): 10 mM),IRF Lucia reporter activity,RAW-Dual [2]; [5],1.03
same,IRF Lucia reporter activity,RAW-Dual [2]; agonist: LPS (TLR4) 0.1 ug/mL,0.969
CN1Cc2c(ccc3c2OCO3)C2C(O)Cc3cc4c(cc3C21)OCO4 (stereo not given) (library stock concentration (final ~1000-fold dilution): 10 mM),IRF Lucia reporter activity,RAW-Dual [3]; [5],0.124
same,IRF Lucia reporter activity,RAW-Dual [3]; agonist: LPS (TLR4) 0.1 ug/mL,1.53
O=c1[nH]c2ccc(Cl)cc2c(NC2CN3CCC2CC3)c1-c1nc2ccccc2[nH]1 (stereo not given) (library stock concentration (final ~1000-fold dilution): 10 mM),IRF Lucia reporter activity,RAW-Dual [2]; [5],0.738
same,IRF Lucia reporter activity,RAW-Dual [2]; agonist: LPS (TLR4) 0.1 ug/mL,0.0187
O=c1[nH]c2ccc(Cl)cc2c(NC2CN3CCC2CC3)c1-c1nc2ccccc2[nH]1 (stereo not given),IRF Lucia reporter activity,RAW-Dual [1]; [6],0.829
CC(NC(C)(C)C)C(=O)c1cccc(Cl)c1.Cl (stereo not given),IRF Lucia reporter activity,RAW-Dual [1]; [6],1.08
CC(NC(C)(C)C)C(=O)c1cccc(Cl)c1.Cl (stereo not given) (library stock concentration (final ~1000-fold dilution): 10 mM),IRF Lucia reporter activity,RAW-Dual [2]; [5],0.961
same,IRF Lucia reporter activity,RAW-Dual [2]; agonist: LPS (TLR4) 0.1 ug/mL,0.906
CN1C(=O)COc2c(C(=O)NC3CN4CCC3CC4)cc(Cl)cc21.Cl (stereo not given),IRF Lucia reporter activity,RAW-Dual [1]; library stock concentration (final ~1000-fold dilution): 2 mM water,1.23
CN1C(=O)COc2c(C(=O)NC3CN4CCC3CC4)cc(Cl)cc21.Cl (stereo not given) (library stock concentration (final ~1000-fold dilution): 2 mM water),IRF Lucia reporter activity,RAW-Dual [2]; [5],1
same,IRF Lucia reporter activity,RAW-Dual [2]; agonist: LPS (TLR4) 0.1 ug/mL,0.74
COc1cc(C2c3cc4c(cc3C(O)C3COC(=O)C23)OCO4)cc(OC)c1OC (stereo not given) (library stock concentration (final ~1000-fold dilution): 10 mM),IRF Lucia reporter activity,RAW-Dual [3]; [5],0.0599
same,IRF Lucia reporter activity,RAW-Dual [3]; agonist: LPS (TLR4) 0.1 ug/mL,1.68
CN1CCN(C(=O)COc2ccc(C34CC5CC(CC(C5)C3)C4)cc2)CC1 (library stock concentration (final ~1000-fold dilution): 10 mM),IRF Lucia reporter activity,RAW-Dual [2]; [5],0.265
same,IRF Lucia reporter activity,RAW-Dual [2]; agonist: LPS (TLR4) 0.1 ug/mL,1.13
CC1CCC2(OC1)OC1CC3C4CC=C5CC(OC6OC(CO)C(OC7OC(C)C(O)C(O)C7O)C(O)C6OC6OC(C)C(O)C(O)C6O)CCC5(C)C4CCC3(C)C1C2C (stereo not given) (library stock concentration (final ~1000-fold dilution): 10 mM),IRF Lucia reporter activity,RAW-Dual [2]; [5],1.01
same,IRF Lucia reporter activity,RAW-Dual [2]; agonist: LPS (TLR4) 0.1 ug/mL,0.208
CC1CCC2(OC1)OC1CC3C4CC=C5CC(OC6OC(CO)C(OC7OC(C)C(O)C(O)C7O)C(O)C6OC6OC(C)C(O)C(O)C6O)CCC5(C)C4CCC3(C)C1C2C (stereo not given),IRF Lucia reporter activity,RAW-Dual [1]; [6],1.04
CC(=O)OC1CN2CCC1CC2.Cl (stereo not given) (library stock concentration (final ~1000-fold dilution): 10 mM),IRF Lucia reporter activity,RAW-Dual [2]; [5],1.07
same,IRF Lucia reporter activity,RAW-Dual [2]; agonist: LPS (TLR4) 0.1 ug/mL,1.12
CC(=O)OC1CN2CCC1CC2.Cl (stereo not given),IRF Lucia reporter activity,RAW-Dual [1]; [6],1.07
CCC1CN2CCC3(C(=O)Nc4ccccc43)C2CC1/C(=C\OC)C(=O)OC (stereo not given) (library stock concentration (final ~1000-fold dilution): 10 mM),IRF Lucia reporter activity,RAW-Dual [2]; [5],1.01
same,IRF Lucia reporter activity,RAW-Dual [2]; agonist: LPS (TLR4) 0.1 ug/mL,0.993
Nc1ncnc2c1ccn2C1OC(C(O)c2ccccc2)C(O)C1O (stereo not given) (library stock concentration (final ~1000-fold dilution): 10 mM),IRF Lucia reporter activity,RAW-Dual [2]; [5],0.852
same,IRF Lucia reporter activity,RAW-Dual [2]; agonist: LPS (TLR4) 0.1 ug/mL,1.02
